# Laboratory results published in the supplement of paper PMC8728848.
# The list shows a part of the results.
# How the values were obtained:
# Assay in all cases: glycan array binding signal (z-score within array); higher = stronger binding
# Settings in all cases: glycan notation: IUPAC condensed, linker removed
# [1] = target: Neu5Ac(a2-6)Gal(b1-4)GlcNAc(b1-2)Man(a1-6)[Gal(b1-4)GlcNAc(b1-2)Man(a1-3)]Man(b1-4)GlcNAc(b1-4)GlcNAc
# Method in brief: (§1)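 The Consortium for Functional Glycomics database supplied 3228 glycan arrays, of which those lacking an available protein sequence were dropped. The binding signal, a within-array Z-score, was averaged across arrays of the same protein sequence and across linkers. Negative scores can be read as non-binding.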
# [2] = target: Neu5Ac(a2-6)Gal(b1-4)GlcNAc(b1-2)Man(a1-6)[GlcNAc(b1-2)Man(a1-3)]Man(b1-4)GlcNAc(b1-4)GlcNAc
# Method in brief: as §1
# [3] = target: Neu5Ac(a2-6)Gal(b1-4)GlcNAc(b1-2)Man(a1-6)[Man(a1-3)]Man(b1-4)GlcNAc(b1-4)GlcNAc
# Method in brief: as §1
# [4] = target: Neu5Ac(a2-6)Gal(b1-4)GlcNAc(b1-3)Gal(b1-3)GlcNAc
# Method in brief: as §1
# [5] = target: Neu5Ac(a2-6)Gal(b1-4)GlcNAc(b1-3)Gal(b1-4)GlcNAc
# Method in brief: as §1
# [6] = target: Neu5Ac(a2-6)Gal(b1-4)GlcNAc(b1-3)Gal(b1-4)GlcNAc(b1-3)Gal(b1-4)GlcNAc
# Method in brief: as §1
# [7] = target: Neu5Ac(a2-6)Gal(b1-4)GlcNAc(b1-3)Gal(b1-4)[Fuc(a1-3)]GlcNAc(b1-3)Gal(b1-4)[Fuc(a1-3)]GlcNAc
# Method in brief: as §1
# [8] = target: Neu5Ac(a2-6)Gal(b1-4)GlcNAc(b1-3)GalNAc
# Method in brief: as §1
# [9] = target: Neu5Ac(a2-6)Gal(b1-4)GlcNAc6S
# Method in brief: as §1
# Neu5Ac(a2-6)GalNAc = target: Neu5Ac(a2-6)GalNAc
# Method in brief: as §1
# [10] = target: Neu5Ac(a2-6)GalNAc(b1-4)GlcNAc
# Method in brief: as §1
# [11] = target: Neu5Ac(a2-6)GlcNAc(b1-4)GlcNAc
# Method in brief: as §1
# [12] = target: Neu5Ac(a2-6)GlcNAc(b1-4)GlcNAc(b1-4)GlcNAc
# Method in brief: as §1
# Neu5Ac(a2-8)Neu5Ac = target: Neu5Ac(a2-8)Neu5Ac
# Method in brief: as §1
# [13] = target: Neu5Ac(a2-8)Neu5Ac(a2-3)Gal(b1-3)GalNAc(b1-4)[Neu5Ac(a2-8)Neu5Ac(a2-3)]Gal(b1-4)Glc
# Method in brief: as §1
# [14] = target: Neu5Ac(a2-8)Neu5Ac(a2-3)Gal(b1-4)Glc
# Method in brief: as §1
# [15] = target: Neu5Ac(a2-8)Neu5Ac(a2-3)[Gal(b1-3)GalNAc(b1-4)]Gal(b1-4)Glc
# Method in brief: as §1
# [16] = target: Neu5Ac(a2-8)Neu5Ac(a2-3)[GalNAc(b1-4)]Gal(b1-4)Glc
# Method in brief: as §1
# [17] = target: Neu5Ac(a2-8)Neu5Ac(a2-8)Neu5Ac
# Method in brief: as §1
# [18] = target: Neu5Ac(a2-8)Neu5Ac(a2-8)Neu5Ac(a2-3)Gal(b1-4)Glc
# Method in brief: as §1
# [19] = target: Neu5Ac(a2-8)Neu5Ac(a2-8)Neu5Ac(a2-3)[GalNAc(b1-4)]Gal(b1-4)Glc
# Method in brief: as §1
# [20] = target: Neu5Ac(a2-8)Neu5Ac(a2-8)Neu5Ac(a2-8)Neu5Ac(a2-3)[GalNAc(b1-4)]Gal(b1-4)Glc
# Method in brief: as §1
# Neu5Ac(b1-6)GalNAc = target: Neu5Ac(b1-6)GalNAc
# Method in brief: as §1
# [21] = target: Neu5Ac(b2-6)Gal(b1-4)GlcNAc
# Method in brief: as §1
# Neu5Ac(b2-6)GalNAc = target: Neu5Ac(b2-6)GalNAc
# Method in brief: as §1
# [22] = target: Neu5Ac9Ac(a2-3)Gal(b1-3)GlcNAc
# Method in brief: as §1
# [23] = target: Neu5Ac9Ac(a2-3)Gal(b1-4)GlcNAc
# Method in brief: as §1
# [24] = target: Neu5Ac9Ac(a2-6)Gal(b1-4)GlcNAc
# Method in brief: as §1
# [25] = target: Neu5Gc(a2-3)Gal(b1-3)GlcNAc
# Method in brief: as §1
# [26] = target: Neu5Gc(a2-3)Gal(b1-3)[Fuc(a1-4)]GlcNAc
# Method in brief: as §1
# Neu5Gc(a2-3)Gal(b1-4)Glc = target: Neu5Gc(a2-3)Gal(b1-4)Glc
# Method in brief: as §1
# [27] = target: Neu5Gc(a2-3)Gal(b1-4)GlcNAc
# Method in brief: as §1
# [28] = target: Neu5Gc(a2-3)Gal(b1-4)[Fuc(a1-3)]GlcNAc
# Method in brief: as §1
# [29] = target: Neu5Gc(a2-6)Gal(b1-4)GlcNAc
# Method in brief: as §1
# Neu5Gc(a2-6)GalNAc = target: Neu5Gc(a2-6)GalNAc
# Method in brief: as §1
# [30] = target: Neu5Gc(b2-6)Gal(b1-4)GlcNAc
# Method in brief: as §1
binder,measurement,setting,value
"BC2L-A (Burkholderia cenocepacia), Q1BKJ8_BURCA (protein) ADSQTSSNRAGEFSIPPNTDFRAIFFANAAEQQHIKLFIGDSQEPAAYHKLTTRDGPREATLNSGNGKIRFEVSVNGKPSATDARLAPINGKKSDGSPFTVNFGIVVSEDGHDSDYNDGIVVLQWPIG",glycan array binding signal (z-score),[1],-0.298
same,glycan array binding signal (z-score),[2],-0.292
same,glycan array binding signal (z-score),[3],3.3
same,glycan array binding signal (z-score),[4],-0.296
same,glycan array binding signal (z-score),[5],-0.294
same,glycan array binding signal (z-score),[6],-0.298
same,glycan array binding signal (z-score),[7],-0.019
same,glycan array binding signal (z-score),[8],-0.205
same,glycan array binding signal (z-score),[9],-0.286
same,glycan array binding signal (z-score),Neu5Ac(a2-6)GalNAc,-0.291
same,glycan array binding signal (z-score),[10],-0.291
same,glycan array binding signal (z-score),[11],-0.298
same,glycan array binding signal (z-score),[12],-0.297
same,glycan array binding signal (z-score),Neu5Ac(a2-8)Neu5Ac,-0.287
same,glycan array binding signal (z-score),[13],-0.219
same,glycan array binding signal (z-score),[14],-0.292
same,glycan array binding signal (z-score),[15],-0.216
same,glycan array binding signal (z-score),[16],-0.265
same,glycan array binding signal (z-score),[17],-0.246
same,glycan array binding signal (z-score),[18],-0.253
same,glycan array binding signal (z-score),[19],-0.086
same,glycan array binding signal (z-score),[20],-0.227
same,glycan array binding signal (z-score),Neu5Ac(b1-6)GalNAc,-0.249
same,glycan array binding signal (z-score),[21],-0.265
same,glycan array binding signal (z-score),Neu5Ac(b2-6)GalNAc,-0.299
same,glycan array binding signal (z-score),[22],-0.298
same,glycan array binding signal (z-score),[23],-0.294
same,glycan array binding signal (z-score),[24],-0.282
same,glycan array binding signal (z-score),[25],-0.292
same,glycan array binding signal (z-score),[26],-0.214
same,glycan array binding signal (z-score),Neu5Gc(a2-3)Gal(b1-4)Glc,-0.287
same,glycan array binding signal (z-score),[27],-0.292
same,glycan array binding signal (z-score),[28],-0.287
same,glycan array binding signal (z-score),[29],-0.291
same,glycan array binding signal (z-score),Neu5Gc(a2-6)GalNAc,-0.29
same,glycan array binding signal (z-score),[30],-0.287
